Assay results as given in PMC4336329 (PLoS ONE, 2015).
The campaign covered roughly 310,000 compounds. About 2,200 (0.71%) showed an effect of 50% or more. Effects have a minus sign here. Some of the results follow.

Target: human ether-à-go-go-related gene (hERG) potassium channel (human, UniProt Q12809)
Assay: primary screen, population patch clamp on CHO cells stably expressing hERG

Sequence of human ether-à-go-go-related gene (hERG) potassium channel (Q12809 whole entry, looked up): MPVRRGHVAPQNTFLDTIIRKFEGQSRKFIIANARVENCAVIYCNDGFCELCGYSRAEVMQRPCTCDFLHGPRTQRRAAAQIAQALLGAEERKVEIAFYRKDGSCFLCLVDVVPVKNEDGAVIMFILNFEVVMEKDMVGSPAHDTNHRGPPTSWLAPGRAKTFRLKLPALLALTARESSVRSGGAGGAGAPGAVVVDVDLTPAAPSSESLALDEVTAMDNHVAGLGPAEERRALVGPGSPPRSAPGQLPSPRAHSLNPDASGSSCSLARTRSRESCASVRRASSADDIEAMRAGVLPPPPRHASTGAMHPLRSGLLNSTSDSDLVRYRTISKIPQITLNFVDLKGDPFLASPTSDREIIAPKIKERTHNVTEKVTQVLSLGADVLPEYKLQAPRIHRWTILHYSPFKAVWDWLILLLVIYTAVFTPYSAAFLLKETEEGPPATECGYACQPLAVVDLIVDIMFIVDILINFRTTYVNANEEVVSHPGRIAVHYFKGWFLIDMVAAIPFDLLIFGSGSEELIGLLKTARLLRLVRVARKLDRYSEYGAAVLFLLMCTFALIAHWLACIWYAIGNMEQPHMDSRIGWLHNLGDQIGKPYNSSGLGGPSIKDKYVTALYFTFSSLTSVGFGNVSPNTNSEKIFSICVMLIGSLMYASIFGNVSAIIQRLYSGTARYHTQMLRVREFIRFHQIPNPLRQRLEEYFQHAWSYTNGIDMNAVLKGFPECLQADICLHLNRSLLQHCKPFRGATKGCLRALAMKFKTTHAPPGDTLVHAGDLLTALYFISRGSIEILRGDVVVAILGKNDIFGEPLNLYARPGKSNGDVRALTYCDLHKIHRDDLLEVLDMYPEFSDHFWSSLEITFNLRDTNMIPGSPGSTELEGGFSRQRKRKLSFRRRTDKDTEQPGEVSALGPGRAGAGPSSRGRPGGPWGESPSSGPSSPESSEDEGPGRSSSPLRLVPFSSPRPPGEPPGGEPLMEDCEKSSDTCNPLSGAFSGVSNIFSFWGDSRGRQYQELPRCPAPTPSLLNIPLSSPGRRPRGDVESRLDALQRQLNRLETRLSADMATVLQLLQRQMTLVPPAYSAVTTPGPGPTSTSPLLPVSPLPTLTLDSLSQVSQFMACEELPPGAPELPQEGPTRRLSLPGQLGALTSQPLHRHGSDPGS

| SMILES | hERG current change (%, negative = inhibition) at 1uM [%] |
| --- | --- |
| CC(=O)NC(CCS(C)(=O)=O)C(=O)Nc1nc(C)cs1 (stereo not shown) | 7.95 |
| Cc1cc2cc(CNC(=O)CCC(=O)O)ccc2[nH]1 | -10.2 |
| CCCCN1CC2=C(C1=O)C(c1ccc(O)cc1)NC(=O)N2C (stereo not shown) | 0.787 |
| Cc1cccc(C)c1NC(=O)CNC(=O)c1cncc(Br)c1 | 17.3 |
| COc1ccc(CC(NC(C)=O)C(=O)NC2CCN(C(=O)c3ccc(OC)c(OC)c3)CC2)cc1OC (stereo not shown) | 10.9 |
| CCN1C(=O)CSC1=NC12CC3CC(CC(C3)C1)C2 | 11.4 |
| CCOC(=O)c1ccc(NC(=O)COC(=O)Cc2csc(-c3ccccc3)n2)cc1 | 7.2 |
| O=C1Nc2ccc(Cl)cc2[C@@](C#CC2CC2)(C(F)(F)F)O1 | 21.8 |
| CCCc1nnc(NC(=O)c2nc(S(=O)(=O)Cc3cccc(C)c3)ncc2Cl)s1 | 21 |
| CN(C)CCN1C(=O)C(=O)/C(=C(/O)c2ccccc2)C1c1ccccc1F (stereo not shown) | 2.27 |
| Cc1cccc(NC(=O)Cn2c(=O)n(C)c3ccccc32)c1 | 16.3 |
| CCOc1ccc(NC(=O)CN(C)C(=O)c2c(C)noc2C)cc1OCC | 9.87 |
| COC(=O)[C@@H]1CCCN1Cc1c(C(=O)N2CCCCC2)nc2c(C)cccn12 | -4.73 |
| C/C(=N\NC(=O)CNc1cccc(C(F)(F)F)c1)c1cccs1 | 15.2 |
| CC1CCCCC1NC(=O)CCNC(=O)N1CC(=O)Nc2ccccc21 (stereo not shown) | 11 |
| CCCCCN(C(=O)COC(=O)CSc1ccc([N+](=O)[O-])cc1)c1c(N)n(CCCC)c(=O)[nH]c1=O | -12.6 |
| CC1(C)CC(=O)C=C(NCC(=O)O)C1 | 9.12 |
| O=S(=O)(NC1CCCCC1N1CCN(c2ccccc2F)CC1)c1ccccc1 (stereo not shown) | 14 |
| Cc1ccccc1CNC(=O)C1CCC(=O)N(C2CC2)C1 (stereo not shown) | 4.81 |
| COc1ccc(C(=O)CN2C(=O)NC(C)(c3ccc(C)cc3)C2=O)cc1OC (stereo not shown) | 13.7 |
| COc1ccccc1NC(=O)C(=O)/C=C(\O)c1ccccc1 | 13.8 |
| CC(=O)c1ccc(OC(=O)Cc2cccc3ccccc23)cc1 | 12.8 |
| CC(C)N1CSC(=S)N(Cc2ccccc2)C1 | 14.7 |

| SMILES | hERG current change (%, negative = inhibition) at 1uM [%] |
| --- | --- |
| Nc1cc(-c2ccccc2)n2c(n1)nc1ccccc12 | 1.6 |
| COc1cccc(-c2ccc(NC(=O)C3CCCN(Cc4cnc(N(C)C)s4)C3)cc2)c1 (stereo not shown) | 10 |
| Cc1ccccc1NC(=O)c1nc[nH]c1C(=O)NCc1ccccc1 | 1.14 |
| C/C(=N\S(=O)(=O)c1ccc(C)cc1)N1CCCCC1 | 0.602 |
| O=C(CCc1ccccc1)NNC(=O)CCc1ccccc1 | 12.4 |
| Cc1[nH]c2ccccc2c1C(=O)C(=O)NCCc1c[nH]c2ccccc12 | 15.4 |
| O=C(Cn1cnc2c(cnn2-c2ccccc2)c1=O)NCCc1ccccc1 | 10.3 |
| Cc1cc(-n2c(C)cc(C(=O)CSc3nncn3C(C)C)c2C)no1 | 11.6 |
| CC1CCc2sc(C(=O)Nc3ccc(N4CCOCC4)cc3)cc2C1 (stereo not shown) | 12.9 |
| COc1ccc(Br)cc1/C=N/NC(=O)c1nc(-c2ccccc2)n2c1CCCCC2 | 14.1 |
| CCOc1ccc(S(=O)(=O)Nc2ccn(C)n2)cc1 | 6.54 |
| O=C(COC(=O)c1ccccc1Nc1ccccc1F)c1ccccc1 | 14.2 |
| COc1cccc(OC)c1C(=O)Nc1ccc2c(c1)n(C)c(=O)n2C | 17 |
| COc1ccc(C(=O)c2ccsc2N)cc1 | 9.55 |
| O=C(Nc1nnc(CCOCCOCCc2nnc(NC(=O)c3ccco3)s2)s1)c1ccco1 | 2.67 |
| C/C(=N\NC(=O)c1ccc(Cl)cc1)c1cccc(NC(=O)c2cccnc2)c1 | 2.64 |
| COc1nc(OCC#N)nc(N2CCCCC2)n1 | 11.8 |
| Nn1c(SCc2ccccc2)nc2ccccc21 | 2.87 |
| O=C(O)Cc1ccc(NC(=O)c2cccs2)cc1 | 9.59 |
| COC(=O)c1ccc(C)c(NC(=O)c2ccc(Cl)c([N+](=O)[O-])c2)c1 | 5.94 |
| Cc1cccc(C)c1OCc1nnc(NC(=O)CSc2ccc(Cl)cc2)s1 | 14.3 |
| CC(C)(C)n1cn[nH]c1=S | 13.8 |
| COc1ccc(S(=O)(=O)N2CCC(C(=O)N3CCc4ccccc4C3)CC2)cc1Cl | 1.48 |

| SMILES | hERG current change (%, negative = inhibition) at 1uM [%] |
| --- | --- |
| O=C(Oc1ccc2c(=O)c(Cl)coc2c1)c1cccnc1 | 9.37 |
| COc1ccccc1OCC(=O)NC1CCSc2ccccc21 (stereo not shown) | 8.33 |
| COc1ccc(NC(=O)CN(C)S(=O)(=O)c2ccc3c(c2)CCCN3C(C)=O)cc1 | 15.5 |
| CC1(C)CC(=O)C=C(NCc2ccncc2)C1 | 8.08 |
| COc1ccc(N2CCN(C(=O)c3cccc4nc(C)oc34)CC2)cc1 | 10.8 |
| COc1ccc(Nc2nnc(SCC(=O)N3CC(=O)Nc4ccccc43)s2)cc1 | 11.8 |
| CN(C(=O)COC(=O)c1cccc(S(=O)(=O)N2CCCCC2)c1)C1CCS(=O)(=O)C1 (stereo not shown) | -3.08 |
| CC1CCC/C(=N\NS(=O)(=O)c2ccccc2)C1 (stereo not shown) | 15.4 |
| Cc1c(C(=O)OCC(=O)Nc2ccccc2OC(F)F)cccc1[N+](=O)[O-] | 0.113 |
| COc1ccccc1-c1nnc(Sc2nc([N+](=O)[O-])nn2C)o1 | -2.46 |
| Cc1nc2cc(Cl)c(Cl)cc2n1-c1ccccn1 | -8.18 |
| Cc1n[nH]c(C)c1CCCCOc1ccc([N+](=O)[O-])cc1 | 2.09 |
| O=C(NCCCn1ccnc1)/C(=C/c1cccs1)NC(=O)c1ccco1 | -2.88 |
| O=C(COC(=O)c1ccc(CSc2ccc(Cl)cc2)cc1)Nc1ccccc1 | 11 |
| CN(C)Cc1ccc(CNC(=O)COc2ccc3ccccc3c2)cc1 | 15.1 |
| Cc1ccccc1N(C(=O)Cc1cccs1)C(C(=O)NCC1CCCO1)c1cccnc1 (stereo not shown) | -4.45 |
| CCOC(=O)C1(Cc2cccc(OC)c2)CCN(C/C=C/c2ccccc2)CC1 | -42.2 |
| COc1ccc(CNC(=O)COC(=O)/C=C/c2cccs2)cc1 | 13.4 |
| Cc1cc(N)c2ccccc2n1 | -7.19 |
| Cc1cccc(C)c1OCc1nnc(SCC(=O)Nc2nccs2)n1-c1ccccc1 | 2.84 |
| Cc1ccccc1NC(=O)CC1SCCNC1=O (stereo not shown) | 6.98 |
| COC(=O)c1ccccc1Oc1ccc(NC(=O)CCCl)cc1 | 14.1 |
| NS(=O)(=O)c1cccc(NC(=O)Nc2ccccc2)c1 | 4.02 |

| SMILES | hERG current change (%, negative = inhibition) at 1uM [%] |
| --- | --- |
| C/C=C/c1ccc(OCC(O)CNCCc2ccc(OC)cc2)c(OC)c1.O=C(O)C(=O)O (stereo not shown) | -37.2 |
| CSc1ccccc1C(=O)NC1CCCc2ccccc21 (stereo not shown) | 8.88 |
| CCCC(=O)Nc1cccc(NC(=O)c2ccc(C)c([N+](=O)[O-])c2)c1 | 6.66 |
| OC(c1ccc(OCc2ccccc2)cc1)c1nnc(-c2ccccc2)o1 (stereo not shown) | 3.77 |
| COc1ccc(C(=O)OCC(=O)NC(C)CCc2ccccc2)cc1OC (stereo not shown) | 13.1 |
| O=c1c2ccccc2nc2n1C1(CCCCC1)Cc1ccccc1-2 | -0.0666 |
| O=C(COC(=O)c1cc([N+](=O)[O-])ccc1N1CCOCC1)c1ccc(Br)cc1 | -12.4 |
| C=CCn1c(SCC)nc(O)cc1=O | -5.75 |
| COc1ccc(NC(=O)CN2C(=O)NC3(CC(C)CC(C)(C)C3)C2=O)cc1S(=O)(=O)N1CCCCC1 (stereo not shown) | -3.09 |
| CNC(=O)OCCc1n(C)cc[n+]1C.[I-] | 15.1 |
| COc1ccc(CN=C(N)N=C(N)N)cc1Cl.Cl | 10.4 |
| CCC(=O)Oc1c(C(=O)CC)cc2c(C)cc(=O)oc2c1C | 11.4 |
| Nc1ccccc1-c1nnn(CC(=O)N2CCCc3ccccc32)n1 | 11.9 |
| O=c1ccn(-c2cccc(C(F)(F)F)c2)nc1-c1ccn(-c2ccccc2)n1 | 7.69 |
| COc1ccc(NC(=O)CSc2c(C)n[nH]c2C)cc1 | -12.8 |
| CCOCC(=O)N1CCN(Cc2ccc3c(c2)OCO3)CC1 | 9.95 |
| CCOC(=O)C1CCCN(C(=O)C2CCC(CNS(=O)(=O)c3ccc(NC(C)=O)cc3)CC2)C1 (stereo not shown) | 11.4 |
| O=C(NCc1ccccn1)c1cc(-c2ccccc2Cl)on1 | 5.1 |
| Cc1cc(NC(=O)C(C)SCC(=O)Nc2cc(C(F)(F)F)ccc2N2CCOCC2)no1 (stereo not shown) | -0.415 |
| COc1ccc([C@H]2/C=C\CN(C(=O)C3CCCC3)[C@@H](C)C(=O)N2Cc2ccc(F)cc2)cc1 | -2.54 |
| CC(C(=O)NC(C)(C)C)N(C(=O)CS(=O)CC(=O)Nc1ccc(F)cc1)C1CCCC1 (stereo not shown) | 13.9 |
| COc1cc(NC(=O)C2CC(c3c(F)cccc3Cl)=NO2)c(OC)cc1Cl (stereo not shown) | 12.7 |
